# Read counts are not given, so values of variants with three or more changes are uncertain.
# B1: LINE1-mini (parent)
# chain: GGCAGAGCUCAACACAGCGUGGCAAAGUGGCUGUGGCUAGACUGCC
# Variants of: B1
# Experiment: self-cleavage, relative activity (ratio to wild type); higher = more cleavage; in vitro, sequencing; the parent is a self-cleaving ribozyme
row,Variant,self-cleavage
1,U9C G19A G29U C37A,0.03
2,U9C G19A G33A G40C C45A C46G,0.01
3,U9C G19A U34C C46A,0.01
4,U9C G19C G22A G27U U43G,0
5,U9C G19C G30C,0.01
6,U9C G19U A24G G30A,0.01
7,U9C G19U C37U A41U,0.02
8,U9C G19U G21C,0.02
9,U9C G21A G27A U32G G36C,0.04
10,U9C G21A G36A C46G,0.02
11,U9C G21C C37A U43C,0.01
12,U9C G21C C46A,0.02
13,U9C G21C U28G,0.01
14,U9C G21U G27C,0.02
15,U9C G22A A39C,0.02
16,U9C G22A C23G G33C,0
17,U9C G22C C23U C31A U38G,0
18,U9C G22C U38A,0
19,U9C G22U A41G C46A,0.02
20,U9C G22U G33A,0.03
21,U9C G27A C37U,0.02
22,U9C G27A G30A,0.01
23,U9C G27A G33U G35A U43A,0.01
24,U9C G27A G35U G40A,0.03

row,Variant,self-cleavage
1,U9C G27C C31A C37U G44C,0
2,U9C G27C G29C G33A C46U,0.02
3,U9C G27C G29U G35A C45A,0.01
4,U9C G27U A39U,0.04
5,U9C G27U G30C U32G A39G,0.03
6,U9C G27U U28C,0.02
7,U9C G29U C37G A39G,0.01
8,U9C G29U U34C C37A,0.04
9,U9C G30C U32C C46A,0.01
10,U9C G30U G35A,0.04
11,U9C G30U G36A U38G,0.01
12,U9C G30U G36U A41G,0.06
13,U9C G33A G35C C46A,0.01
14,U9C G33U U43A,0.05
15,U9C G35A C37A,0.49
16,U9C G35U C42A,0.04
17,U9C G36A A41C,0.06
18,U9C G36A C46U,0.02
19,U9C G36C C42G,0
20,U9C G36U G44C,0.07
21,U9C G40C U43C,0.02
22,U9C G40U A41C,0.01
23,U9C U20A C45A C46G,0.03
24,U9C U20A C46G,0.05

row,Variant,self-cleavage
1,U9C U20A C46U,0.02
2,U9C U20C A25U G40A,0
3,U9C U20C C37A C42U,0
4,U9C U20C G29C C46A,0.02
5,U9C U20G G29A G33U,0.02
6,U9C U28A C31A G33C,0
7,U9C U28A G29A C37U C42A,0.01
8,U9C U28G G29A,0.1
9,U9C U28G G30U,0.01
10,U9C U28G U32C,0.03
11,U9C U32C G33A,0.05
12,U9C U32G G36C,0
13,U9C U34C U43A,0.04
14,U9C U38G C46A,0
15,U9C U38G G40C,0.03
16,U9C U43A C45A,0.04
17,U9C U43C C45A,0.03
18,U9G A11C A41U,0.01
19,U9G A11C G17C U20C,0.02
20,U9G A11C G30C C31A U43A G44U,0.01
21,U9G A11C U32A,0.01
22,U9G A11G C15U G27U G35C C37G C42U,0.01
23,U9G A11G C23A A24C C37A G40U,0.04
24,U9G A11G C31U,0.01

row,Variant,self-cleavage
1,U9G A11G C46U,0.02
2,U9G A11G G19U A24U G33C,0.01
3,U9G A11G G22U,0.02
4,U9G A11G G33C,0.03
5,U9G A11G G44A,0.05
6,U9G A11U A12C G44A,0
7,U9G A11U A41U,0.01
8,U9G A11U G17A A26U,0.02
9,U9G A11U G21U C31A,0.01
10,U9G A11U G30A,0.03
11,U9G A11U G40A,0.01
12,U9G A11U G44U,0.03
13,U9G A11U U20A C42U,0.02
14,U9G A11U U20C G22U A39U,0
15,U9G A11U U43C,0.01
16,U9G A12C A14C C15A G36C G40U,0.06
17,U9G A12C A16C A41C C42G,0.01
18,U9G A12C C13A G30C C37A,0.01
19,U9G A12G C13A G33U,0
20,U9G A12G G19C G22A,0.03
21,U9G A12G G27U G29A A39C,0
22,U9G A12G G35U G36U,0.04
23,U9G A12G U34C,0.05
24,U9G A12U C13A G29A A39C,0.11

row,Variant,self-cleavage
1,U9G A12U C46U,0.11
2,U9G A12U G35C,0.01
3,U9G A14C A24U,0.07
4,U9G A14C C18G U20C C37U,0.04
5,U9G A14C C45A,0.01
6,U9G A14C G17A U34G C46A,0.01
7,U9G A14C G40U C42A,0
8,U9G A14G A39U U43A,0.02
9,U9G A14G C15G C18G G22A G36C,0.02
10,U9G A14G C37G,0.08
11,U9G A14G G19C A25C U28C G29A U34G U38C G40A,0.06
12,U9G A14G G30C U34C C46U,0.07
13,U9G A14G U32G G35U,0.08
14,U9G A14U G17A C42A,0.31
15,U9G A14U G29U,0.04
16,U9G A14U U32C,0.04
17,U9G A16C C23U G27U G40C,0.02
18,U9G A16C C31G C45A,0.01
19,U9G A16C G17A A24C C45A,0.02
20,U9G A16C G30A U32C,0.03
21,U9G A16C G40C C45U,0.07
22,U9G A16G C18U A39U,0.08
23,U9G A16G G22A U34C U38C,0.04
24,U9G A16G G40C,0.08

row,Variant,self-cleavage
1,U9G A16U A41U,0.01
2,U9G A16U G17U U20C U34C G35U,0.02
3,U9G A16U G30C U43A G44C C46G,0.01
4,U9G A24C G33C C37A,0.01
5,U9G A24C U32A,0.02
6,U9G A24C U32C C46A,0.01
7,U9G A24U G27C C46G,0.07
8,U9G A25C C37U,0.05
9,U9G A25C U28G A41C,0.07
10,U9G A25G C42A,0
11,U9G A25G G30C,0.03
12,U9G A26C C37A G40A,1.07
13,U9G A26C G30U G36U,0.12
14,U9G A26G A41U C46G,0
15,U9G A26G C31G,0.04
16,U9G A26G C31U U34A,0.09
17,U9G A26G G33U,0.04
18,U9G A26G G40C U43C,0.13
19,U9G A26U C45A,0.05
20,U9G A26U G27A,0.04
21,U9G A26U G44U,0.07
22,U9G A26U U32C,0.04
23,U9G A41G C45A,0.05
24,U9G C10A A11U A24G G35U G40U U43A,0.01

row,Variant,self-cleavage
1,U9G C10A A14G,0.01
2,U9G C10A A41U,0
3,U9G C10A C15G G17C,0.02
4,U9G C10A G22A G29A,0
5,U9G C10A G35U G40U,0.01
6,U9G C10A G36A A39G,0.03
7,U9G C10A U28C G33C,0.02
8,U9G C10G A12G G17U A24G G29U,0.01
9,U9G C10G A12U G22C,0
10,U9G C10G C15U C18A C31U G35C,0.01
11,U9G C10G C18U C37U,0.01
12,U9G C10G C31G,0.01
13,U9G C10G G22A A26U,0.01
14,U9G C10G G29C G35C U38A,0.01
15,U9G C10U A12U A14C C23G A24C,0.03
16,U9G C10U A26G A39C U43A,0.01
17,U9G C10U C15G,0.04
18,U9G C10U G21U,0.06
19,U9G C10U G22C C23A G33A C45G,0.02
20,U9G C10U G33U,0.06
21,U9G C10U G35U,0.04
22,U9G C10U U20G A26C,0.02
23,U9G C13A A16U G17C C18A G33A G36C,0.01

# Reference: the RNAGym collection of RNA variant scans (doi:10.7554/elife.90254)
